Source: article PMC4336329 (PLoS ONE, 2015)
The whole screen tested about 310,000 compounds, of which about 2,200 (0.71%) showed an effect of 50% or more. Effects have a minus sign here. The list shows a part of the results.

The compounds below were run against human ether-à-go-go-related gene (hERG) potassium channel (human, UniProt Q12809) (assay: primary screen, population patch clamp on CHO cells stably expressing hERG).
Sequence of human ether-à-go-go-related gene (hERG) potassium channel (Q12809 whole entry, looked up): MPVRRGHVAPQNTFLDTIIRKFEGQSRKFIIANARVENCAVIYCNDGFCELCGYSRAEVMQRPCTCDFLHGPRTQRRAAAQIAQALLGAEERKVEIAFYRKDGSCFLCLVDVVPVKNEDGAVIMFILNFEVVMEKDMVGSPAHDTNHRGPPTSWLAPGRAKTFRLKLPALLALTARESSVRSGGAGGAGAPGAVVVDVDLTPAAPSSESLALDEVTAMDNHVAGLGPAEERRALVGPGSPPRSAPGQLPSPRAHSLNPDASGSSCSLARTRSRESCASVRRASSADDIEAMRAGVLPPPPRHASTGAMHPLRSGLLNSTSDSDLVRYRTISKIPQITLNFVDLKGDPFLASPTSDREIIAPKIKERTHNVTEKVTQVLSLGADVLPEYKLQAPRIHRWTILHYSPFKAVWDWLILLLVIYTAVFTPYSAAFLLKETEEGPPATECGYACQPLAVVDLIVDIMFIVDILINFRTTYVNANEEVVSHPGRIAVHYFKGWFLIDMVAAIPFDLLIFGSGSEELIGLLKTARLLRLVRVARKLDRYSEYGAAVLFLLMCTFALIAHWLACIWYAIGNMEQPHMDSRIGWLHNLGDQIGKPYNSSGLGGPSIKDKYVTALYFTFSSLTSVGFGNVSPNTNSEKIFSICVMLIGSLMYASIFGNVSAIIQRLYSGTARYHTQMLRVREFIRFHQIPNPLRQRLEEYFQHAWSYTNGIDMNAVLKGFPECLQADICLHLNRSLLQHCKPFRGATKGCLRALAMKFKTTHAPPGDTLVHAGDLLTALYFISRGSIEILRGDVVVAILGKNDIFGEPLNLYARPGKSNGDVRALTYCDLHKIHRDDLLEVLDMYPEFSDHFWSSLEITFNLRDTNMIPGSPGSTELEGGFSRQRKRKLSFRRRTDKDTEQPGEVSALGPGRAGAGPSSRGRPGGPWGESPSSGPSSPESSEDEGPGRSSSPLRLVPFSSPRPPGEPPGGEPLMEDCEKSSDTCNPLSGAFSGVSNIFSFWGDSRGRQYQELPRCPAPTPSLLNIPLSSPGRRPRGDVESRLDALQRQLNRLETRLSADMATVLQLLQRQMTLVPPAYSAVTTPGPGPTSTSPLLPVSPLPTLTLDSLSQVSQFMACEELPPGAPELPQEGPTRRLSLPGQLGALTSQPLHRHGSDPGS

| SMILES | hERG current change (%, negative = inhibition) at 1uM [%] |
| --- | --- |
| Brc1ccc(C2NCCS2)cc1 (stereo not shown) | 6.09 |
| CCCCNc1c(NC(C)=O)c(=O)oc2ccccc12 | 13 |
| CCOc1ccc(Br)cc1S(=O)(=O)Nc1ccccc1N1CCOCC1 | -13.2 |
| CC1CCN(CCCNC(=O)c2ccc(Cn3c(=S)[nH]c4ccc(Br)cc4c3=O)cc2)CC1 | 10.9 |
| Cn1c(=O)n(C)c2cc(NC(=O)C(F)(F)F)ccc21 | 8.59 |
| O=C(CN1CCN(Cc2ccccc2)CC1)N=Nc1c(O)[nH]c2ccccc12 | -37.6 |
| COc1ccc(NC(=O)CNC(=O)c2c(C)nn(C)c2Cl)cc1 | 15.1 |
| CCc1c(C(=O)N2CCN(c3ccccc3F)CC2)[nH]c(C)c1C(C)=O | 6.3 |
| c1ccc(Nc2nc(N3CCCCC3)nc(N3CCNCC3)n2)cc1 | 1.69 |
| COc1ccc(OC)c(CNc2ccc3c(c2)CCC3)c1 | 14.9 |
| O=c1cc(-c2ccccc2)nc2nc(CCc3ccccc3)[nH]n12 | 16.9 |
| CN1C(=O)c2oc3ccccc3c(=O)c2C1c1cccnc1 (stereo not shown) | -2.06 |
| CCOC(=O)c1ncccc1NC(=O)CC(=O)Nc1cccnc1C(=O)OCC | 12.1 |
| CCOC(=O)c1sc(NC(=O)c2ccc(S(=O)(=O)N(CC)CC)cc2)nc1C | 3.55 |
| Cc1cccc(Cn2ccc(NC(=O)c3ccc4c(c3)OCO4)n2)c1 | 2.14 |
| CC(NC(=O)c1ccco1)c1ccc2c(c1)OCO2 (stereo not shown) | -4.89 |
| COCCn1c(SCC(=O)Nc2ccc(NC(=O)c3ccco3)c(OC)c2)nc2ccccc2c1=O | 1.17 |
| COC(=O)[C@H]1C[C@@H]1[C@H](NP(=O)(c1ccccc1)c1ccccc1)c1ccccc1 | 9.06 |
| O=C1NC(=O)C2(Cc3ccccc3N3CCCC32)C(=O)N1 (stereo not shown) | 3.76 |
| COc1ccc(CCNC(=O)CCC(=O)N2CC(C)Oc3ccc(Cl)cc32)cc1OC (stereo not shown) | 10.2 |
| CSCCC(NC(=O)c1cccc([N+](=O)[O-])c1)c1nc2ccccc2[nH]1 (stereo not shown) | -0.896 |
| CC(=O)c1ccc(N2C(=O)NC3(CCCCC3)C2=O)cc1 | 4.42 |
| CCc1noc(C)c1C(=O)Oc1ccc(N(C)S(=O)(=O)c2ccc(C)cc2)cc1 | 0.292 |

| SMILES | hERG current change (%, negative = inhibition) at 1uM [%] |
| --- | --- |
| COc1ccc(C2C(C(=O)Nc3cccc(C)n3)CCC(=O)N2c2ccc(OC)cc2)cc1 (stereo not shown) | -0.0137 |
| CN(C(=O)c1ccc(F)c(S(=O)(=O)N2CCOCC2)c1)C1CCCCC1 | 7.37 |
| CCCCOC(=O)CSc1nnc(-c2cc(OC)c(OC)c(OC)c2)o1 | 3.76 |
| CCCn1c(C)cc(/C=C(\C#N)C(=O)OCC(=O)Nc2cccc(OC)c2)c1C | 16.5 |
| c1ccc2[nH]c(NCCN3CCOCC3)nc2c1 | 13.2 |
| CCCn1c2c(c(=N)c3c1CCC3)CCC2.I | 8.15 |
| Nc1nc2c(s1)CCc1c-2cnn1-c1ccccc1 | 9.35 |
| CNc1nc(N)nc(OC(C(F)(F)F)C(F)(F)F)n1 | 15.6 |
| O=C(/C=C/c1ccc(Br)o1)Nc1nnc(C2CC2)s1 | 3.12 |
| CN(c1ccc(C(=O)N2CCN(Cc3ccc4c(c3)OCO4)CC2)cc1)S(C)(=O)=O | 13.1 |
| COc1ccc(NC(=O)COC(=O)C23CC4CC(CC(Cl)(C4)C2)C3)c(OC)c1 | 11.7 |
| C/C(=N\NC(=O)c1ccc(O)cc1)c1ccc(N2CCOCC2)cc1 | 11 |
| O=C(N/N=C/c1ccc(OC(F)F)cc1)c1cc[n+]([O-])cc1 | 12.2 |
| CCOc1ccc(NC(=O)CCS(=O)(=O)c2cccc3nsnc23)cc1 | 5.74 |
| COc1ccc(C2C(=O)c3ccccc3C2=Nc2ccc(Br)cc2)cc1 (stereo not shown) | 13.7 |
| CCOc1ccccc1NC(=O)Nc1c(C)n(-c2ccccc2)c(=O)n1C | 2.46 |
| CN1C(=O)CSc2ccc(NC(=O)N3CCN(c4ccccc4)CC3)cc21 | 0.102 |
| S=c1[nH]nc(C2CCCCC2)o1 | 4.92 |
| CN(Cc1cccc(F)c1)C(=O)c1ccc2c(=O)n3c(nc2c1)CCC3 | 12.5 |
| CCc1ccc(C(C)NC(=S)NC2CCCCC2)cc1 (stereo not shown) | 16.7 |
| O=C(NCC(c1ccco1)N1CCOCC1)c1c(F)cccc1F (stereo not shown) | -0.879 |
| Cc1cc(C(=O)Nc2ccccc2)c(C)o1 | 11.8 |
| Cc1ccc(Cn2ncc(Cl)c(Cl)c2=O)cc1 | 15.1 |

| SMILES | hERG current change (%, negative = inhibition) at 1uM [%] |
| --- | --- |
| NC(=O)c1nsc(C(=O)N(c2cccc(F)c2)C(C(=O)NC2CCCC2)c2ccco2)c1N (stereo not shown) | 14.1 |
| CCOC(=O)c1sc2nc3n(c(=O)c2c1C)CCC(C)CC3 (stereo not shown) | 0.194 |
| Cc1ccc(N2CC(C(=O)Nc3nnc(SCC(=O)NCC4CCCO4)s3)CC2=O)cc1 (stereo not shown) | 24.2 |
| Cc1cc(C(=O)N/N=C/c2cccn2C)no1 | 8.86 |
| CC1CC(C)CN(C(=O)CCc2ccccc2)C1 (stereo not shown) | 11.7 |
| COc1cc(NC(=O)Cc2ccccc2)cc(OC)c1 | 7.71 |
| CCCCn1c(N)c(N(CC)C(=O)c2c(CC)noc2C)c(=O)[nH]c1=O | 15.3 |
| CC(=O)Nc1c(O)[nH]c2ccccc12 | 8.05 |
| COC(=O)CNC(=O)c1cn(-c2ccc(C)c(C)c2)c(=O)c2ccccc12 | 11 |
| COc1ccccc1C1=CC(=O)CC(C)(C)C1=O | 2.92 |
| COC(=O)C(C)N(c1ccc(OC)cc1)S(C)(=O)=O (stereo not shown) | 15.7 |
| Cc1nc(C)c(C(=O)Nc2nc3c(C)cccc3s2)o1 | -4.12 |
| O=C(Nc1c(C(=O)N2CCN(c3ccccn3)CC2)oc2ccccc12)c1cccc([N+](=O)[O-])c1 | 7.86 |
| COc1ccc(S(=O)(=O)N2N=C(c3ccc(NS(C)(=O)=O)cc3)CC2c2ccco2)cc1 (stereo not shown) | -69.6 |
| O=C(Nc1nc(-c2ccc(F)cc2)cs1)c1cnccn1 | -1.92 |
| Cc1ccc(NC(=O)CCn2c(=O)c3cccn3c3ccccc32)cc1C | 19.6 |
| Cc1cc(C(=O)N/N=C/c2c(C)nn(-c3ccccc3)c2Cl)n[nH]1 | 2.71 |
| CCN(CC)CCNC(=S)Nc1ccc2nc(N3CCCC3)cc(C)c2c1 | 9.86 |
| c1cn2c(NC3CCCC3)c(-c3ccc(N4CCOCC4)cc3)nc2cn1 | -0.852 |
| CC/C(=N/Nc1ccccc1Cl)c1cnnc(-c2ccccc2)n1 | -19.5 |
| Cc1ccccc1C(=O)NCC(=O)NCC1(N2CCOCC2)CCCCC1 | -3.01 |
| COc1ccc(NS(=O)(=O)c2cccc(C(=O)NCC(c3ccc(OC)cc3)N3CCCC3)c2)cc1 (stereo not shown) | -3.56 |
| Cc1ccc(C(=O)Nc2ccc3c(c2)OCCO3)cc1 | 10.5 |

| SMILES | hERG current change (%, negative = inhibition) at 1uM [%] |
| --- | --- |
| Cc1cc2c(ncn2C)c(NS(=O)(=O)c2ccccc2Cl)c1C | -2.76 |
| Cc1ccc(N(C)S(=O)(=O)c2ccc(-c3cnc(C4CC4)o3)cc2)cc1 | 15.1 |
| Cc1nc2ccccc2c2oc(C(=O)NCCN3CCCCC3C)cc12 (stereo not shown) | 11.8 |
| COc1ccc(C(=O)Nc2ccccc2C(=O)N2CCOCC2)cc1Br | -3.34 |
| CC(C)(C)C(=O)NC(=S)N1CCCC1 | 9.63 |
| O=C(c1cc([N+](=O)[O-])ccc1N1CCCCC1)N1CCCC1 | 12.4 |
| O=C(c1ccccc1)N1N=C(C(F)(F)F)CC1(O)c1ccccc1O (stereo not shown) | 13.4 |
| COc1cc2c(cc1OC)C1=C(C#N)COCN1CC2 | 6.47 |
| CS(=O)(=O)N(CC(=O)Nc1ccc(S(=O)(=O)N2CCCC2)cc1)c1ccccc1F | 4.41 |
| NC(=O)C1CCN(C(=O)c2ccc3c(=O)n(Cc4ccco4)c(SCC(=O)c4ccc(F)cc4)nc3c2)CC1 | 7.76 |
| Cc1ccc(C(=O)Nc2ccon2)cc1S(=O)(=O)N1CCCC1 | -2.03 |
| Cl.O=C(c1ccco1)N1CCN(CCCCOc2ccc(F)cc2)CC1 | -74.8 |
| c1ccc2[nH]c(SCc3cn4cccnc4n3)nc2c1 | 4.07 |
| Cn1c(=O)c([N+](=O)[O-])c(NCc2ccccc2Cl)c2ccccc21 | 1.47 |
| CC(C)CN(C(=O)CSc1nnnn1C)C1CCS(=O)(=O)C1 (stereo not shown) | 17.1 |
| CS/C(=N\S(=O)(=O)c1cccs1)NC(=O)CSc1nc2ccccc2s1 | 13.9 |
| O=C(c1cc2ccccc2oc1=O)N(Cc1ccco1)CC1CCCO1 (stereo not shown) | 4.51 |
| CCOc1cc(CNc2ccc3c(c2)CCC3)ccc1OC | -1.65 |
| O=C(c1ccc(Cl)c([N+](=O)[O-])c1)N1CCN(Cc2ccc3c(c2)OCO3)CC1 | -9.4 |
| Cc1nc(Cl)c2c(n1)NC(=O)CO2 | 15.4 |
| COc1cccc(NC(=O)Nc2cc(C(=O)NC(C)C)ccc2N2CC3CC(C2)c2cccc(=O)n2C3)c1 (stereo not shown) | 15.3 |
| CC1(c2ccccc2)NC(=O)N(CC(=O)Nc2ccc(C(N)=O)cc2)C1=O (stereo not shown) | 16.2 |
